# Laboratory results published in the supplement of paper PMC10037445.
# Over roughly 2,900 compounds, “NF-kB SEAP reporter activity, fold change vs agonist alone” has its median near 0.99; the highest 2% begin near 2.6. Some of the results follow.
# How the values were obtained:
# RAW-Dual [1] = assay: NF-kB SEAP reporter activity, fold change vs agonist alone; higher = enhanced NF-kB activity; settings: library stock concentration (final ~1000-fold dilution): 10 mM
# Outline: (§1)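 After 50 nL of library stock was delivered by pin tool to RAW-Dual macrophages (50,000 cells/well, DMEM, 384-well plates), a PRR agonist was added 1 h later and the plates were kept at 37 °C, 5% CO2. Twenty hours later, IRF was read from supernatant by QuantiLuc luminescence and NF-κB by QuantiBlue absorbance at 620 nm. Reporter activity is stated as fold change over agonist-alone wells. Wells with IncuCyte confluency under 70% of agonist controls in both mask sets were counted as cytotoxic.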
# RAW-Dual [2] = assay: NF-kB SEAP reporter activity, fold change vs agonist alone; cytotoxicity flag (confluency mask): not cytotoxic; higher = enhanced NF-kB activity
# Outline: as §1
# RAW-Dual [3] = assay: NF-kB SEAP reporter activity, fold change vs agonist alone; cytotoxicity flag (confluency mask): cytotoxic (confluency <70% of control); higher = enhanced NF-kB activity
# Outline: as §1
# [4] = cytotoxicity flag (confluency mask): not cytotoxic, agonist: Imiquimod (TLR7) […]
# [5] = cytotoxicity flag (confluency mask): not cytotoxic, agonist: MPLA (TLR4) […]
# [6] = agonist: ODN 1826 (TLR9) 0.5 ug/mL
# [7] = agonist: Pam2CSK4 (TLR2/6) 0.1 ug/mL
# [8] = agonist: Pam3CSK4 (TLR2/1) 0.1 ug/mL
# [9] = cytotoxicity flag (confluency mask): cytotoxic (confluency <70% of control), agonist: Imiquimod (TLR7) […]
# [10] = cytotoxicity flag (confluency mask): cytotoxic (confluency <70% of control), agonist: MPLA (TLR4) […]
structure (smiles),measurement,setting,value
O=C(c1ccc(Cl)cc1)N(Cc1ccccc1)C1CCCCC1,NF-kB SEAP reporter activity,RAW-Dual [1]; [4],0.752
same,NF-kB SEAP reporter activity,RAW-Dual [1]; [5],1.12
O=C(c1ccc(Cl)cc1)N(Cc1ccccc1)C1CCCCC1 (library stock concentration (final ~1000-fold dilution): 10 mM),NF-kB SEAP reporter activity,RAW-Dual [2]; agonist: LPS (TLR4) 0.1 ug/mL,1.17
same,NF-kB SEAP reporter activity,RAW-Dual [2]; [6],0.509
same,NF-kB SEAP reporter activity,RAW-Dual [2]; [7],0.806
same,NF-kB SEAP reporter activity,RAW-Dual [2]; [8],0.849
O=C(Nc1ccccc1)N1CCN(c2nc(-c3ccccc3)ns2)CC1,NF-kB SEAP reporter activity,RAW-Dual [1]; [4],1.27
same,NF-kB SEAP reporter activity,RAW-Dual [1]; [5],1.25
O=C(Nc1ccccc1)N1CCN(c2nc(-c3ccccc3)ns2)CC1 (library stock concentration (final ~1000-fold dilution): 10 mM),NF-kB SEAP reporter activity,RAW-Dual [2]; agonist: LPS (TLR4) 0.1 ug/mL,2.07
same,NF-kB SEAP reporter activity,RAW-Dual [2]; [6],0.961
same,NF-kB SEAP reporter activity,RAW-Dual [2]; [7],1.11
same,NF-kB SEAP reporter activity,RAW-Dual [2]; [8],1.13
Clc1cccc(CN=C2Nc3ccccc3NC23CCNCC3)c1 (library stock concentration (final ~1000-fold dilution): 10 mM),NF-kB SEAP reporter activity,RAW-Dual [2]; agonist: LPS (TLR4) 0.1 ug/mL,0.98
same,NF-kB SEAP reporter activity,RAW-Dual [2]; [6],0.169
same,NF-kB SEAP reporter activity,RAW-Dual [2]; [7],0.518
same,NF-kB SEAP reporter activity,RAW-Dual [2]; [8],0.355
Clc1cccc(CN=C2Nc3ccccc3NC23CCNCC3)c1,NF-kB SEAP reporter activity,RAW-Dual [1]; [4],1.04
same,NF-kB SEAP reporter activity,RAW-Dual [1]; [5],1.21
C/C(=C\C(=O)OCCCCCCCCC(=O)O)CC1OCC(CC2OC2C(C)C(C)O)C(O)C1O (stereo unspecified),NF-kB SEAP reporter activity,RAW-Dual [1]; [4],1.06
same,NF-kB SEAP reporter activity,RAW-Dual [1]; [5],1.04
C/C(=C\C(=O)OCCCCCCCCC(=O)O)CC1OCC(CC2OC2C(C)C(C)O)C(O)C1O (stereo unspecified) (library stock concentration (final ~1000-fold dilution): 10 mM),NF-kB SEAP reporter activity,RAW-Dual [2]; agonist: LPS (TLR4) 0.1 ug/mL,1.46
same,NF-kB SEAP reporter activity,RAW-Dual [2]; [6],1.05
same,NF-kB SEAP reporter activity,RAW-Dual [2]; [7],1.02
same,NF-kB SEAP reporter activity,RAW-Dual [2]; [8],1.16
CN(c1ncccc1CNc1nc(Nc2ccc3c(c2)CC(=O)N3)ncc1C(F)(F)F)S(C)(=O)=O,NF-kB SEAP reporter activity,RAW-Dual [1]; [9],0.481
same,NF-kB SEAP reporter activity,RAW-Dual [1]; [10],0.23
CN(c1ncccc1CNc1nc(Nc2ccc3c(c2)CC(=O)N3)ncc1C(F)(F)F)S(C)(=O)=O (library stock concentration (final ~1000-fold dilution): 10 mM),NF-kB SEAP reporter activity,RAW-Dual [3]; agonist: LPS (TLR4) 0.1 ug/mL,0.225
same,NF-kB SEAP reporter activity,RAW-Dual [3]; [6],0.225
same,NF-kB SEAP reporter activity,RAW-Dual [3]; [7],0.104
same,NF-kB SEAP reporter activity,RAW-Dual [3]; [8],0.162
CCCCCCCCOc1ccccc1C(=O)Nc1ccc(C(=O)OCC[N+](C)(CC)CC)cc1,NF-kB SEAP reporter activity,RAW-Dual [1]; [9],1.6
same,NF-kB SEAP reporter activity,RAW-Dual [1]; [10],1
CCCCCCCCOc1ccccc1C(=O)Nc1ccc(C(=O)OCC[N+](C)(CC)CC)cc1 (library stock concentration (final ~1000-fold dilution): 10 mM),NF-kB SEAP reporter activity,RAW-Dual [3]; agonist: LPS (TLR4) 0.1 ug/mL,0.618
same,NF-kB SEAP reporter activity,RAW-Dual [3]; [6],0.645
same,NF-kB SEAP reporter activity,RAW-Dual [3]; [7],0.546
same,NF-kB SEAP reporter activity,RAW-Dual [3]; [8],0.476
CC(C)(C)NC(=O)NC(C(=O)N1CC2C(C1C(=O)NC(CC1CCC1)C(=O)C(N)=O)C2(C)C)C(C)(C)C (stereo unspecified) (library stock concentration (final ~1000-fold dilution): 10 mM),NF-kB SEAP reporter activity,RAW-Dual [2]; agonist: LPS (TLR4) 0.1 ug/mL,0.977
same,NF-kB SEAP reporter activity,RAW-Dual [2]; [6],0.99
same,NF-kB SEAP reporter activity,RAW-Dual [2]; [7],0.911
same,NF-kB SEAP reporter activity,RAW-Dual [2]; [8],0.841
CC(C)(C)NC(=O)NC(C(=O)N1CC2C(C1C(=O)NC(CC1CCC1)C(=O)C(N)=O)C2(C)C)C(C)(C)C (stereo unspecified),NF-kB SEAP reporter activity,RAW-Dual [1]; [4],0.815
same,NF-kB SEAP reporter activity,RAW-Dual [1]; [5],0.964
CC1=NN(c2ccc(C(=O)O)cc2)C(=O)/C1=C\c1ccc(-c2cc(C)c(C)cc2[N+](=O)[O-])o1,NF-kB SEAP reporter activity,RAW-Dual [1]; [4],1.16
same,NF-kB SEAP reporter activity,RAW-Dual [1]; [5],0.978
CC1=NN(c2ccc(C(=O)O)cc2)C(=O)/C1=C\c1ccc(-c2cc(C)c(C)cc2[N+](=O)[O-])o1 (library stock concentration (final ~1000-fold dilution): 10 mM),NF-kB SEAP reporter activity,RAW-Dual [2]; agonist: LPS (TLR4) 0.1 ug/mL,0.424
same,NF-kB SEAP reporter activity,RAW-Dual [2]; [6],1.18
same,NF-kB SEAP reporter activity,RAW-Dual [2]; [7],1.07
same,NF-kB SEAP reporter activity,RAW-Dual [2]; [8],0.896
c1ccc(C(c2ccccc2)N2CCN(Cc3ccc4c(c3)OCO4)CC2)cc1 (library stock concentration (final ~1000-fold dilution): 10 mM),NF-kB SEAP reporter activity,RAW-Dual [2]; agonist: LPS (TLR4) 0.1 ug/mL,0.717
same,NF-kB SEAP reporter activity,RAW-Dual [2]; [6],0.728
same,NF-kB SEAP reporter activity,RAW-Dual [2]; [7],1.38
same,NF-kB SEAP reporter activity,RAW-Dual [2]; [8],0.699
c1ccc(C(c2ccccc2)N2CCN(Cc3ccc4c(c3)OCO4)CC2)cc1,NF-kB SEAP reporter activity,RAW-Dual [1]; [4],1.19
same,NF-kB SEAP reporter activity,RAW-Dual [1]; [5],0.686
CNc1ccc([N+](=O)[O-])c(Nc2ccc3[nH]ncc3c2)n1 (library stock concentration (final ~1000-fold dilution): 10 mM),NF-kB SEAP reporter activity,RAW-Dual [2]; agonist: LPS (TLR4) 0.1 ug/mL,0.533
same,NF-kB SEAP reporter activity,RAW-Dual [2]; [6],0.722
same,NF-kB SEAP reporter activity,RAW-Dual [2]; [7],0.2
same,NF-kB SEAP reporter activity,RAW-Dual [2]; [8],0.694
CNc1ccc([N+](=O)[O-])c(Nc2ccc3[nH]ncc3c2)n1,NF-kB SEAP reporter activity,RAW-Dual [1]; [4],0.983
same,NF-kB SEAP reporter activity,RAW-Dual [1]; [5],0.764
O=C(O)CCC(=O)c1ccc(-c2ccccc2)cc1 (library stock concentration (final ~1000-fold dilution): 10 mM),NF-kB SEAP reporter activity,RAW-Dual [2]; agonist: LPS (TLR4) 0.1 ug/mL,1.28
same,NF-kB SEAP reporter activity,RAW-Dual [2]; [6],1.04
same,NF-kB SEAP reporter activity,RAW-Dual [2]; [7],0.901
same,NF-kB SEAP reporter activity,RAW-Dual [2]; [8],1.19
O=C(O)CCC(=O)c1ccc(-c2ccccc2)cc1,NF-kB SEAP reporter activity,RAW-Dual [1]; [4],0.968
same,NF-kB SEAP reporter activity,RAW-Dual [1]; [5],1.04
